According to PMC4336329 (PLoS ONE, 2015):
Among all 310,000 compounds or so, about 14,000 (4.5%) showed an effect of 50% or more. The effect is printed as a negative number. The list shows a part of the results.

molecular target: human ether-à-go-go-related gene (hERG) potassium channel (human, UniProt Q12809); experiment: primary screen, population patch clamp on CHO cells stably expressing hERG
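Also: peak tail current of the secondary pulse compared with the same well before compound.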

human ether-à-go-go-related gene (hERG) potassium channel, sequence (Q12809 whole entry, looked up): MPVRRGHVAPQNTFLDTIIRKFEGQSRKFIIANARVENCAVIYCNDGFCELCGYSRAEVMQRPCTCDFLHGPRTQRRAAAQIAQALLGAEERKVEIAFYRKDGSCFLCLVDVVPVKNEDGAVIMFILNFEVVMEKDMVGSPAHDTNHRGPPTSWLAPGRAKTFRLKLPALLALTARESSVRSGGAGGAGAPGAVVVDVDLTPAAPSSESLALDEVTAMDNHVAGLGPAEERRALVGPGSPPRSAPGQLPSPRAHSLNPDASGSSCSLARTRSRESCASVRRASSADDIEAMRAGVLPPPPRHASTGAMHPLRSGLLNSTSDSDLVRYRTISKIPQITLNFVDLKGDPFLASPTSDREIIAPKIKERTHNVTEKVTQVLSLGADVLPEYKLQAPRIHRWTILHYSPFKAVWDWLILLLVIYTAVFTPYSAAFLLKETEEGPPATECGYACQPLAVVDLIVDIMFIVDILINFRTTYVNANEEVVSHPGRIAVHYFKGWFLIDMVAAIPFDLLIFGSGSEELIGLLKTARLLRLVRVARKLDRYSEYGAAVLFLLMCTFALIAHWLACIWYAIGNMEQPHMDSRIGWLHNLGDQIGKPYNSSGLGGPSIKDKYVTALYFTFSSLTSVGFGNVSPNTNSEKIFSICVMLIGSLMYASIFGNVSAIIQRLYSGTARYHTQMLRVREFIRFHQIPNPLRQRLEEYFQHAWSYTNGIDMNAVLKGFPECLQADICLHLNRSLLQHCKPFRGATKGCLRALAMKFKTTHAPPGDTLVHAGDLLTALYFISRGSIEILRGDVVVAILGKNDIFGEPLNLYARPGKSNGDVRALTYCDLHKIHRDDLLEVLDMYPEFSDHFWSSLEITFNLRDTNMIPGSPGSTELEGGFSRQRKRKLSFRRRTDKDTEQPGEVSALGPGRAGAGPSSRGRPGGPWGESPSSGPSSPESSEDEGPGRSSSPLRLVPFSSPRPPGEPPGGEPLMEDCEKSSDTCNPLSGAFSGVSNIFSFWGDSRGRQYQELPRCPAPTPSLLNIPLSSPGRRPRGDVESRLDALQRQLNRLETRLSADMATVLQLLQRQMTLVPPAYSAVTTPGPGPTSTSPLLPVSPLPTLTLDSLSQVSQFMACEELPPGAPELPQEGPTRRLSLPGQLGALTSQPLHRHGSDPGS

Compound	hERG current change (%, negative = inhibition) at 10uM
O=[N+]([O-])c1ccc([C@H](O)[C@H](CO)N=Cc2ccccc2O)cc1	8.19%
COc1cccc(NC(=O)Nc2c(C)n(C)n(-c3ccccc3)c2=O)c1	3.91%
CCOc1ccc(S(=O)(=O)n2nnc3ccccc32)cc1C(C)C	18.2%
COc1ccc(NS(=O)(=O)c2ccc(C)c(C(=O)NCC(c3ccco3)N(C)C)c2)cc1 (stereo not shown)	-15.2%
O=C(NCc1ccco1)C1CCN(C(=O)c2cc3sccc3n2Cc2ccc(F)cc2)CC1	-68.5%
O=C(NC12CC3CC(CC(C3)C1)C2)N1CCC(O)CC1	14%
CN1CCCN(Cc2nc(-c3ccc(Cl)cc3)no2)CC1	-72.6%
CC1CCCCN1S(=O)(=O)c1cnc(Cl)c(Br)c1 (stereo not shown)	-16.8%
Cc1cc(-c2csc3nc[nH]c(=S)c23)cc(C)c1C	27.1%
O=C(NCc1ccco1)[C@@H]1CSC2c3ccccc3C(=O)N21 (stereo partly shown)	9.79%
CC(=O)c1c(C)[nH]c(C(=O)Nc2cc(S(=O)(=O)N3CCCCC3)ccc2C)c1C	2.24%
O=C(CSc1nnc(-c2ccco2)o1)c1ccc(O)cc1O	33.9%
Cc1ccc(S(=O)(=O)NCc2cccnc2)cc1C(=O)N1CCCC1	20.3%
Cc1nnc(SCC(=O)O)s1	-0.959%
CC(C)c1c(C(=O)N/N=C/c2ccco2)nnn1-c1nonc1N	0.0472%
CCN(Cc1ccccc1)C(=O)CSc1ccccc1C(=O)O	17.2%
Cc1cc(OCCNCCO)cc(C)c1Cl	-0.939%
CC(C)CN(C(=O)C1CC1)C1CCS(=O)(=O)C1 (stereo not shown)	-1.65%
CCOC(=O)Cn1c(-c2cccnc2Cl)nc2ccccc21	7.46%
Cc1cccnc1NC(=O)CNC(=O)c1ccccc1	-2.29%
CCOC(=O)c1cc(C)nn1-c1nc(Cl)cc(OC)n1	-38.3%
CCOC(=O)C(NC(=O)c1ccccc1)(OCc1ccccc1)C(F)(F)F (stereo not shown)	-6.55%

Compound	hERG current change (%, negative = inhibition) at 10uM
N#Cc1ccc(/C=N/NC(=S)Nc2ccc(S(=O)(=O)N3CCOCC3)cc2)cc1	28.2%
CCCC(c1nnnn1CCOC)N1CCN(c2nc3ccccc3s2)CC1 (stereo not shown)	-66.2%
Cc1ccc(C)c(S(=O)(=O)NCC(=O)NCc2ccco2)c1	3.24%
COc1ccc(-n2cc(CNCCc3nc(C)cc(C)n3)c(-c3ccccc3Cl)n2)cc1	-62.6%
O=C(Cc1c[nH]c2ccccc12)NCC(=O)Nc1ccc(F)c(F)c1F	1.04%
COc1cc2ccccc2cc1C(=O)N1CCN(c2ccccn2)CC1	-34.4%
CCC(C)C(NC(=O)c1ccccc1NC(=O)c1ccc(OC)cc1)C(=O)NCc1ccco1 (stereo not shown)	8.78%
Cc1[nH]c2ccccc2c1C(=O)CSc1ccc(Cl)cc1	17.6%
CC(C)(C)NCCCOc1ccc(Cl)cc1C(C)(C)C.O=C(O)C(=O)O	1.96%
C=CCn1c(O)c(N=NC(=S)Nc2ccc(OC)c(Cl)c2)c2ccccc21	39.1%
CCOC(=O)c1ccc[n+](CC(=O)Nc2cc(C(F)(F)F)ccc2Cl)c1.[Cl-]	2.93%
COc1ccc2cc(CO)c(Cl)nc2c1	10.5%
Cc1ccc(S(=O)(=O)N2CCCC(C(=O)NCc3ccccc3F)C2)cc1 (stereo not shown)	25.1%
COc1ccc(NC(=O)c2ccc3snnc3c2)cc1	9.11%
Clc1ccc2[nH]cc(-c3nnnn3-c3ccc4ccccc4c3)c2c1	12.6%
COc1ccc(CN(C#N)c2nc(SC)nc(N(C)C)n2)cc1	-8.55%
Nc1c(C(=O)Nc2cccc(C(=O)O)c2)sc2nc3c(cc12)CCCC3	12.1%
COc1ccc(OC)c(S(=O)(=O)CC(O)COc2ccccc2Cl)c1 (stereo not shown)	-1.82%
Cc1cccc([C@@H]2[C@@H]3C(=O)N(Cc4ccccc4)C(=O)[C@@H]3[C@]3(Cc4ccccc4)C(=O)N(c4ccccc4)C(=O)N23)c1	12.4%
O=C(c1cnccn1)N1CCN(S(=O)(=O)c2ccc3ccccc3c2)CC1	-9.29%
COc1ccc(CCNC(=O)CC(Cc2ccccc2)C(=O)O)cc1OC (stereo not shown)	4.4%
CCC(=O)N1CCN(c2ccc(NC(=O)c3ccc4c(c3)OCCO4)cc2)CC1	1.98%

Compound	hERG current change (%, negative = inhibition) at 10uM
CCC(=O)c1ccccc1OCCN1CCN(CC)CC1.O=C(O)C(=O)O	-13.7%
Nn1c(SCC(=O)Nc2ccc(N3CCOCC3)cc2)nnc1-c1cccc(F)c1	9.93%
CC(C)C1OC2(C)OC(=N)C1(C#N)C(C#N)(C#N)C2c1ccccc1 (stereo not shown)	2.05%
Oc1ccc(N=Nc2cccc(C(F)(F)F)c2)cc1C=Nc1ccc(N2CCOCC2)cc1	15.6%
O=C(NC1=NCCS1)c1ccc(C(F)(F)F)cc1	-5.26%
O=C1NC(=O)N(Cc2ccc(F)cc2)C(=O)/C1=C\C=C\c1ccco1	1.97%
CCc1nnc(NS(=O)(=O)c2ccc(NC(=S)NC(=O)c3cccnc3)cc2)s1	-5.99%
CCCn1c(N2CCC(Cc3ccccc3)CC2)nc2c1c(=O)[nH]c(=O)n2C	-51.2%
Cc1ccc(CNC(=O)CSc2n[nH]c(N)n2)cc1	18.5%
Cc1ccc(Oc2ccc(S(=O)(=O)N3CCOCC3)cc2C(N)=O)cc1C	-29.6%
O=C(/C=C/c1cccc([N+](=O)[O-])c1)NCCSCc1ccccc1Cl	-11.5%
O=C(CNc1ccccc1)N/N=C/c1c[nH]c2ccccc12	-16.1%
Cc1ccccc1Cn1cc(S(=O)(=O)c2ccc(C(C)C)cc2)c(=O)c2cc3c(cc21)OCO3	-20.2%
O=C(CCSc1ccc(Cl)cc1)NN=C1CCCCCC1	-11.4%
Cc1ccccc1-c1cn(-c2ccccc2)c(=S)[nH]1	-10.1%
CC12CCC(C(=O)Nc3ccccc3N3CCOCC3)(CC1=O)C2(C)C (stereo not shown)	-3.18%
CN(C)c1nnnn1-c1ccccc1Oc1ncc(C(F)(F)F)cc1Cl	-5.73%
COc1ccc(NC(=O)Nc2cc3oc4ccccc4c3cc2OC)cc1	12.2%
O=c1[nH]cnc(O)c1C(c1ccc([N+](=O)[O-])cc1)c1c(O)nc[nH]c1=O	16.7%
Cc1ccc(C)c(OCCCCn2cnc3ccccc3c2=O)c1	6.86%
COc1ccc(C(=O)NC(=S)Nc2cccnc2)cc1OC	12.9%
Cc1c(NC(=S)Nc2ccc(Cl)cc2)c(=O)n(-c2ccccc2)n1C	-7.99%

Compound	hERG current change (%, negative = inhibition) at 10uM
CN(C(=O)N1CCN(S(=O)(=O)c2ccccc2)CC1)c1ccccc1	13.8%
O=C(CNC(=O)c1ccc(Br)cc1)NCC(=O)OCC(=O)c1ccc(F)cc1	9.12%
CNC(=S)N(Cc1ccc(OC)cc1)C1CC(=O)N(c2ccc(OC)cc2)C1=O (stereo not shown)	-33%
Cc1ccc(Cn2c(S(=O)(=O)O)nc3ccccc32)cc1	11.3%
C/C(CCC(C)C)=N\Nc1ccc(S(N)(=O)=O)cc1[N+](=O)[O-]	-26.6%
COCCCNC(=O)c1ccc(Cn2c(=O)[nH]c3ccccc3c2=O)cc1	15.7%
CCN1C(=O)[C@@H]2Cc3c([nH]c4ccccc34)C(c3ccc(OC)cc3)N2C1=S (stereo partly shown)	12.2%
CCc1oc2c(C)c(O)ccc2c(=O)c1-c1ccc2ccccc2n1	5.95%
Cc1ccc(C2=NN=C(NC(=O)CSc3nnc4c5ccccc5n(C)c4n3)SC2)cc1	8.81%
Fc1ccccc1Nc1nc2ccccc2n2nnnc12	7.8%
O=C(Nc1cccnc1)c1ccc(N2CCCC2)c([N+](=O)[O-])c1	2.01%
CCOc1ccc(CNC(=O)CCCOc2cc(=O)n(C)c3ccccc23)cc1	-22%
CN(CC(=O)Nc1ccc(F)cc1)C(=O)COC(=O)COc1ccc(C#N)cc1	-34.4%
CCOc1ccc(NC(=S)Nc2cccc3ccccc23)cc1	17.9%
CC(C)C(=O)Nc1ccc2c(c1)nc(CCN1CCN(c3ccccc3)CC1)n2C	-40.4%
CCc1onc(C)c1C(=O)Nc1ccc(N2CCOCC2)cc1	15%
Cc1cc(C(=O)Nc2ccncc2)ccc1[N+](=O)[O-]	-8.79%
CC1CCN(c2ccc(C(=O)NCc3cccs3)cn2)CC1	4.25%
CC1(c2ccc3noc(-c4cccc(F)c4)c3c2)OCCO1	11.5%
COC(=O)c1cn(C(=O)c2cc(OC)c(OC)c(OC)c2)c2ccccc12	4.7%
CCCN(CCC)c1nc(N)nc(-c2cc(Cl)ccc2OC)n1	14.1%
COc1ccc(CNC(=O)Cc2c(C(=O)O)[nH]c3ccccc23)cc1	2.83%
